Laboratory results from PubChem BioAssay (NCI).
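96-well plates; 48 h exposure; 5 concentrations. Endpoints by linear interpolation between flanking doses. Not reached: highest tested concentration assigned. Here, GI50 denotes the concentration required for 50% inhibition of growth. TGI marks complete inhibition of growth.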

Test system: NCI-H322M lung
Assay: NCI tumour cell line growth inhibition, 48 h

| Compound | GI50 [µM] | TGI [µM] |
| --- | --- | --- |
| N#C/C(=C\c1ccc(Br)cc1)n1nnc2ccccc21 | 2 | 7.31 |
| CC1CCc2sc3[nH]c(=S)n(-c4ccccc4)c(=O)c3c2C1 (stereo not drawn) |  | > 100 |
